Experimental data from the supplement of paper PMC11417369.
Some of the results follow.

What follows are sequences tested on PfHDP1 homeodomain (GST-tagged) (assay: gcPBM binding intensity (ln(normalized median fluorescence intensity)); higher = stronger DNA binding).
How it was run: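 DNA-binding domains from P. falciparum, fused to GST and produced in E. coli, were put on an Agilent 4 × 180k double-stranded probe array for 1 h in 1× PBS holding 1% milk, 0.2 mg/ml BSA, 0.5% salmon testes DNA and 0.03% Triton X-100. Probes were primer-extended, 36 bp long and drawn from intergenic genomic regions, with negative controls included. After Alexa488 anti-GST antibody detection and a 488 nm scan, binding intensity was set as the highest Masliner-normalised natural-log median intensity across replicate spots of either probe orientation.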

| Sequence | gcPBM binding intensity (ln) |
| --- | --- |
| TATAACGCTTGCAGCTGTACAAAAATAATCAAACTG [XGTACX_site2464] | 6.67 |
| AATGCTATCATTAATGCACACATTTAAACTTAATAT [CACACA_site5878] | 10.6 |
| TTTTTTTTTTTGTTCACACATATACTTTTATTTTGG [CACACA_site4250] | 6.5 |
| AAAATTATAATATATACACACATATATATATTAAAT [CACACA_site473] | 6.44 |
| TTCTTGGAATACAAGTGTACTTTATTATTATTATTA [XGTACX_site5997] | 6.32 |
| ATAGAAAGTGACAATTGTACATACATATTATATATA [XGTACX_site4390] | 6.74 |
| TTTTTTTTTGCCTACTGTACTATTTTTGAGCTCACC [XGTACX_site7967] | 7.06 |
| AAAAAAAAAAAAAAAAAAAAATTTCAATTATATTGA [GTGCAC_negctrl_site642] | 6.82 |
| AGATAAAAAAAGTACACACACACATATATATATATA [CACACA_site3072] | 9.22 |
| AAGCTTCCTTAATATACACACATATCTGAGTATATT [CACACA_site5939] | 6.74 |
| CAAAATATAGATGACACACACAAAAAAAGTATATTA [CACACA_site6848] | 6.59 |
| CATTTACCCTTATTAACACACAAAATATAATACGCT [CACACA_site2565] | 6.71 |
| TATATAATATATATTTTATATTTGTAATAATTTTTT [GTGCAC_negctrl_site497] | 6.3 |
| TACATATGAAAATACACACATACATACATATATATA [CACACA_site1673] | 6.76 |
| TAACTCCACAAATAATGTACATATATCACTATATTT [XGTACX_site4911] | 6.56 |
| AATGTATAATTATAATGTACAAATAATATATAATAT [XGTACX_site5407] | 6.64 |
| ATTTACATTCACTTATGTACTTATATAATTTTATTT [XGTACX_site8150] | 6.5 |
| ACGTAAAATTATTATTGTACATGTAAATAATTTGGA [XGTACX_site8154] | 6.45 |
| TATATTAAACATATATGTACATATTTTTTCTGAACA [XGTACX_site5390] | 6.47 |
| AATATTTTCTGTAATACTTCTTTTCAATTTATTTCG [CACACA_negctrl_site1390] | 6.46 |
| ACCAAATCATATATAGCACACAAATTCTTTATTATT [CACACA_site8911] | 7.16 |
| AATATCAATGATGTTACATGCAAGAGAATCCACAAA [TGCATGCA_site678] | 6.64 |
| TATTGTTTTTTTGATTTTTTTTTTTTTTTTAATGAA [CACACA_negctrl_site824] | 6.15 |

| Sequence | gcPBM binding intensity (ln) |
| --- | --- |
| AATAAATTTAAACACACACACACATATATATATATA [CACACA_site4621] | 9.29 |
| TATATACATAAACACACACACACATATATATATATA [CACACA_site8707] | 9.3 |
| ATATTAAACAAACACACACACATATATATATATATA [CACACA_site3383] | 9.29 |
| AATTAATGGTTAAAGGTGCACAATACATATATTACA [GTGCAC_site9943] | 9.7 |
| TGCATATACTCAAGCACACATATATATATATATATA [CACACA_site4733] | 9.45 |
| TTTTTTTTTTTTTTTTTTTTTTTTTTTTTTTGGGGG [CACACA_negctrl_site1570] | 6.49 |
| ATATATTGAAAATATAGTACATAATAAATGTTCTTT [XGTACX_site8474] | 5.99 |
| ATAAAATAAGACAAAAAAAAAATATATATATATATA [TGCATGCA_negctrl_site314] | 9.18 |
| CCTTGTCTTTTTTTTTTTTTTTTTTCTTCTTATTTT [GTGCAC_negctrl_site523] | 6.24 |
| AAAAAAAAAAAAAAATGTACATATATATATATATTA [XGTACX_site7330] | 6.35 |
| AGTAGATATAATATATGTACATATATATATATATAT [XGTACX_site7186] | 9.32 |
| AAAGTAAAAGGGTTTGGTACACATATAATATATTAG [XGTACX_site6036] | 6.71 |
| ATAACTTTTATTTGTACACACATACATCTATATTAT [CACACA_site6595] | 7.34 |
| AGTAAAAGAAAGCACACACACATGTATTTATGTATG [CACACA_site5998] | 6.5 |
| CATTTATATAAAGAATGTACACACAGAAATGCACAC [XGTACX_site4718] | 9.03 |
| AATATAAATATAAATATAAATAAATAAATAAATAAA [CACACA_negctrl_site291] | 6.43 |
| GTAATTTTTTTCTATACACACATATATATAATATAT [CACACA_site2655] | 7.08 |
| AATGTAGTTTATCGATGTACACAAAATAAAGAGAAG [XGTACX_site6956] | 7.67 |
| CCGTACAATTTTGTCACACATAAAATACTTATGTAT [CACACA_site4871] | 6.38 |
| TAGTATTTATATGATTAACACACATATGGGTATTAA [CACACA_site8363] | 6.3 |
| ATATACACCTGAGAGGTGCATATATATAAAATTTAC | 9.05 |
| ATAATGTTCACATAGGTGCACTAATATAATTATCCA [GTGCAC_site9981] | 9.74 |
